Laboratory results published in article PMC6919601, “Identification of Plasmodium dipeptidyl aminopeptidase allosteric inhibitors by high throughput screening” (PLoS ONE, 2019).
Several values for one entry are separate records, joined by “and”; a condition that tells them apart may be missing. Equal values may be shown once. About 230 (0.21%) of roughly 110,000 compounds showed an effect of 50% or more. Some of the results follow.

molecular target: DPAP1 (Plasmodium falciparum, UniProt Q8IIJ9); assay: primary screen, percent inhibition; read by cleavage of a fluorogenic dipeptide substrate; higher = more effect of the substance; set-up: species or system P. falciparum D10 trophozoite lysates; single well
Sequence (Q8IIJ9 whole entry, looked up): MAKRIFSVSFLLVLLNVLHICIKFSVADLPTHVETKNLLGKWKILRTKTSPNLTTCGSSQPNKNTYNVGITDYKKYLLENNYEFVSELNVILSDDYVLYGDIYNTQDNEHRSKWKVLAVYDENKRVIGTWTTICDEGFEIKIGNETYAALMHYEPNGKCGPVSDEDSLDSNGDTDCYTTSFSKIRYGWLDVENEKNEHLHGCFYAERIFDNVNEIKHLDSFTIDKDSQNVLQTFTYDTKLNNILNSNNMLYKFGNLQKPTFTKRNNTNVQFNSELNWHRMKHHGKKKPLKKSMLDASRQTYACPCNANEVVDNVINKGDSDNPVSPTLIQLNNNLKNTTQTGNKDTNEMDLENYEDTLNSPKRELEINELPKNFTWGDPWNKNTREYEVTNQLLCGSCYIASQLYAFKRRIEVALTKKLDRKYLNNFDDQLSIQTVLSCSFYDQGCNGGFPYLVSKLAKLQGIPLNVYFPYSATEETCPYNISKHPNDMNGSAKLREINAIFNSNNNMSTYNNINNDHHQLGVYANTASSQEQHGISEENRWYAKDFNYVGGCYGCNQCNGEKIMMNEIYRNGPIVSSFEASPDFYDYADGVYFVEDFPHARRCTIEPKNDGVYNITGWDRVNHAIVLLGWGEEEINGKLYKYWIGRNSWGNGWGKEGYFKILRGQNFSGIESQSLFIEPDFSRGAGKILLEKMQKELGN
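Also: 30 min substrate incubation versus DMSO and 10 µM JCP410 controls.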

Compound | % Inhibition @ 10 uM
CCOc1ccccc1-c1ccc(C(=O)N[C@@H](CC(C)C)C(=O)NCC#N)cc1 | -3.04%
O=C(NCCCN1CCOCC1)c1ccc(CS(=O)(=O)c2c(Cl)cccc2Cl)o1 | -11%
COc1cc(/C=C2\SC(N)=NC2=O)cc(OC)c1O | -6.06%
CC(=O)C1C(=O)C=C(/C=C/c2ccccc2)CC1c1ccccc1 (centres unmarked) | 4.08%
NC(=O)C(=O)Nc1ccc(Cl)c(Cl)c1 | 2.94%
COC(=O)/C(C#N)=C/c1c(Oc2ccc(Cl)c(C)c2)nc2c(C)cccn2c1=O | 0.315%
CN1C(=O)S/C(=C/c2ccccc2OCc2ccc(C(=O)O)cc2)C1=O | 1.1%
Cc1ccc(CN2C(=O)N/C(=C/c3ccccc3C)C2=O)cc1 | -0.661%
O=C(CNC(=S)N(Cc1ccccc1)Cc1cccnc1)NCc1ccc(F)cc1 | -3.94%
COc1ccccc1CNCCc1ccc(OC)c(OC)c1 | -0.641%
CCOc1ccc2c(c1)C(SCC(=O)NCCc1ccc(OC)c(OC)c1)CC1(CCCC1)O2 (centres unmarked) | 1.27%
COc1cccc(C2CC(=O)Nc3c2c(O)nc2nc4ccccc4n32)c1OC (centres unmarked) | -5.17%
Cc1ccc(NC(=O)Cn2cnc3ccccc3c2=O)cc1C | 12.3%
c1ccc(CNc2ncnc3scc(C4COc5ccccc5O4)c23)cc1 (centres unmarked) | 4.19%
Cc1nc2c(-c3ccc(F)cc3)c(C)nn2c(C)c1CCC(=O)NCCCN1CCCC1=O | -0.465%
CNC(=O)/C(C#N)=C/c1c(F)cccc1Cl | 6.51%
CC(C)CC(NC(=O)/C(=C\c1ccco1)NC(=O)c1ccccc1)C(=O)O (centres unmarked) | -2.87%
COc1ccc(N(CC(=O)Nc2ccc(Cl)cc2C)S(=O)(=O)c2ccccc2)cc1OC | -7.58%
Cc1ccccc1C(=O)N1CCC(Cc2ccccc2)CC1 | 1.35%
CC(=O)c1ccc(-n2c(=O)c3ccccc3c3ccccc3c2=O)cc1 | -4.49%
COc1ccccc1CNS(=O)(=O)c1ccc(-c2cc(C)no2)s1 | -5.31%
CC(C)CC1C(C#N)=C(N)OC2=C1C(=O)CCC2 (centres unmarked) | 1.13%
CCOC(=O)c1cnc2cc(N(C)C)ccn2c1=O | 3.48%
Cc1nnc(SCC(=O)NCC(C)c2ccccc2)c2nn(-c3ccccc3)c(C)c12 (centres unmarked) | 1.4%
Cc1ccc(N2CCN(Cc3ccccn3)CC2)cc1 | 1.38%

Compound | % Inhibition @ 10 uM
COc1ccc(OC)c(CNCc2c(C(=O)O)n(Cc3ccc(F)cc3Cl)c3cc(C)ccc23)c1 | -0.717%
Cc1cc(OCC(=O)N(Cc2cccc(F)c2)C2CCS(=O)(=O)C2)ccc1Cl (centres unmarked) | -1.35%
CN(Cc1ccccc1)C(=O)Cn1ncc2ccsc2c1=O | -10.4%
Cc1nn(C)cc1C(=O)NCc1ccccc1 | -6.68%
O=S(=O)(O)CCC[n+]1c(/C=C/c2ccc3c(c2)OCO3)sc2ccc(Cl)cc21 | 0.565%
CCC(C)Cn1c(CCCO)nc2ccccc21 (centres unmarked) | -2.19%
CN(C(=O)c1ccccc1C(=O)O)C1CC(C)(C)NC(C)(C)C1 | -6.43%
C=CCSC1=C(C#N)C(c2ccc(Cl)cc2)CC(=O)N1 (centres unmarked) | 2.76%
O=C1NC(=S)N(C(=O)c2ccc(F)cc2)/C1=C/c1cccnc1 | 2.7%
O=C(Nc1nccs1)C1CCCN(S(=O)(=O)c2ccc3nc(O)ccc3c2)C1 (centres unmarked) | 1.39%
CC1CCN(C(=O)c2ccc(COc3ccccc3Cl)o2)CC1 | -13.7%
O=C1N=C(Nc2ccc(Br)cc2)S/C1=C\c1ccccn1 | -10.8%
O=C(CN(CCc1ccccc1)S(=O)(=O)c1ccc(Br)cc1)N1CCCCCC1 | 9.51%
CCOC(=O)N1CCc2c(sc3c2C(=O)NC(c2ccccc2)N3)C1 (centres unmarked) | -2.75%
Fc1cccc(Cl)c1CNCc1ccccc1Cl | 3.99%
CSc1ccc(NC2CCN(C)CC2)cc1 | -1.82%
NC(=O)CN(Cc1ccccc1F)S(=O)(=O)c1ccc(Cl)cc1 | 1.03%
NC(=O)C1CCN(C2CC(=O)N(c3ccc(OC(F)(F)Cl)cc3)C2=O)CC1 (centres unmarked) | -3.05%
O=C1C2C3CCC(C3)C2C(=O)N1O (centres unmarked) | 2.03%
Cc1ccc(-n2c(=S)[nH]c3sc4c(c3c2=O)CCCCC4)cc1 | 11.5%
Cc1cnc(NC(=O)CSc2nnc(-c3ccccc3)o2)s1 | 5.52%
CC(C)Nc1nc2c(-c3cccc(C(F)(F)F)c3)nnn2c2ccccc12 | -6.76%
Cn1c(=O)c2c(n(C)c1=O)n(Cc1ccccc1Cl)c(=O)n2Cc1ccc(Cl)cc1Cl | -1.92%
CCCn1c(SC(C)CC)nc2c1c(=O)[nH]c(=O)n2C (centres unmarked) | -3.12%
COc1cccc(C(=O)Nc2cccc(N)c2)c1OC | 6.29% and -1.17%
